# Reference: PubChem BioAssay (NCATS)
# The list shows a part of the results. These are further read-outs of the screen, such as a control signal, another cell line or another target. No call is given for them. The list favours compounds with an active or inconclusive main result. Words in brackets tell the shape of the fitted curve; partial curves, single points and poor fits give uncertain potencies.
# Assay: qHTS Assay for Lipid Storage Modulators (AID 1519)
# Details: Drosophila S3 cells, BODIPY lipid droplet/cell ratio, laser cytometry, cells loaded with oleic acid
# Summary of the method: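 Cells seeded at 5,000 per well were treated with compounds over a concentration series and loaded with oleic acid (400 uM, as added). Lipid droplet fluorescence (488 nm excitation, 500-530 nm channel) was read by laser-scanning cytometry and normalized to 20 uM Triacsin C.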
# [1] = measured here: cell count channel max response
# [2] = measured here: cell number channel AC50
# [3] = measured here: lipid (BODIPY) channel AC50
# [4] = measured here: lipid channel max response
# Tags tell the direction and shape of the fitted curve.
SMILES,max response [1] [%],AC50 [2],AC50 [3],max response [4] [%]
CN1CCc2cc3c(cc2C(=O)Cc2ccc4c(c2C1)OCO4)OCO3,114,"17800 nM [rising, partial curve]","15800 nM [rising, partial curve]",146
COC(=O)C1=C(C)NC(C)=C(C(=O)OCCSc2ccccc2)[C@@H]1C,8.34,"1260 nM [rising, full curve]","1000 nM [rising, full curve]",1.49
COc1cccc(-c2cc(NCc3ccccc3OC)ncn2)c1,9.46,"200 nM [rising, full curve]","200 nM [rising, full curve]",-5.38
